Target: SP-6 BIM wild-type (unstapled)
Experiment: MS-based binding affinity

Sequence of SP-6 BIM wild-type (unstapled) (Q07817 1-212): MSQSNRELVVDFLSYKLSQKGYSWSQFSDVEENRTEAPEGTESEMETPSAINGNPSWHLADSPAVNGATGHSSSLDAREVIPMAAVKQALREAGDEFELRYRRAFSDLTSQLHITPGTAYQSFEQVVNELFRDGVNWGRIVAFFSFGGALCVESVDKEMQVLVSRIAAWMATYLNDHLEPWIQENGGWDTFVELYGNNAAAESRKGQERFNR

Kd: < 100 nM
B1: Bcl-xL (other)
chain: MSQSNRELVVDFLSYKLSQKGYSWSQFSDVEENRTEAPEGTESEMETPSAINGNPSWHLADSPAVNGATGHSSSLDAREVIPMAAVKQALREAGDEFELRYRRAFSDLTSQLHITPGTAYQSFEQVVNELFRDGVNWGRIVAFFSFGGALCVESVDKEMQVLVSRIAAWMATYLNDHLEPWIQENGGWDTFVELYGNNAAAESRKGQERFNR

Source: US20150038430A1 (published 2015)
